# Source: paper PMC4336329 (PLoS ONE, 2015)
# Screen size: about 310,000 compounds; about 14,000 (4.5%) showed an effect of 50% or more. Effects have a minus sign here. The list shows a part of the results.
# Target: human ether-à-go-go-related gene (hERG) potassium channel (human, UniProt Q12809)
# Assay: primary screen, population patch clamp on CHO cells stably expressing hERG
# 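Further: peak tail current of the secondary pulse compared with the same well before compound.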
# Chain of human ether-à-go-go-related gene (hERG) potassium channel (Q12809 whole entry, looked up): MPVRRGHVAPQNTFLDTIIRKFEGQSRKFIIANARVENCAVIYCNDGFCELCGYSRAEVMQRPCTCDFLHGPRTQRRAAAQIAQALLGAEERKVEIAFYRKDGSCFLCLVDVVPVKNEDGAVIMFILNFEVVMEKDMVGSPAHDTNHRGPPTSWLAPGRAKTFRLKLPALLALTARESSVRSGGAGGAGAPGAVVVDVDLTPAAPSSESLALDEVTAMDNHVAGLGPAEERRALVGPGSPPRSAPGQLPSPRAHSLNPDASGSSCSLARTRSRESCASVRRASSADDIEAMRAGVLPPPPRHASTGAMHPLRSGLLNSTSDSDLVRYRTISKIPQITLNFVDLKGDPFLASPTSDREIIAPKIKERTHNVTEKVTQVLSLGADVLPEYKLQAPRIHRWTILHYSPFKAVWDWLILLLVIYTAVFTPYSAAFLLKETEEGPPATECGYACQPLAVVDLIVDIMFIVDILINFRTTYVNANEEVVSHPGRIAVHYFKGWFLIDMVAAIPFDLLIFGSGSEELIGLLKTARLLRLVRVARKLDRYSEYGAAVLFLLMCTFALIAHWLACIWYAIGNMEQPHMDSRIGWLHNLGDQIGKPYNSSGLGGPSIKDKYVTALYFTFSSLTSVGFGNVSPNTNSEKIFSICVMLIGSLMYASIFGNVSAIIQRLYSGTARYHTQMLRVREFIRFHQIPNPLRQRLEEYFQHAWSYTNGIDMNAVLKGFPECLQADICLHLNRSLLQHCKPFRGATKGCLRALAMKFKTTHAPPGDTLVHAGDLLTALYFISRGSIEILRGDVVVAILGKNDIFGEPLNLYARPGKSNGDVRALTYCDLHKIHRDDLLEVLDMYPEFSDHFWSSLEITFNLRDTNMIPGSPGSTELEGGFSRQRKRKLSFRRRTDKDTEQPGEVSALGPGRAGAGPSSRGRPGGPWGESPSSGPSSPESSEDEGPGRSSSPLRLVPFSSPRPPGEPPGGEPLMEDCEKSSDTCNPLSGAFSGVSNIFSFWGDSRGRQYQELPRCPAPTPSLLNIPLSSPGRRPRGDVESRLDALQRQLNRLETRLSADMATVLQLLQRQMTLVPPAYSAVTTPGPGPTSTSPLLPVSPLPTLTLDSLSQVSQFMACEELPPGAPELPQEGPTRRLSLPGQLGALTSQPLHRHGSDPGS
row,SMILES,"hERG current change (%, negative = inhibition) at 10uM [%]"
1,O=C(CN1CCC(C(=O)c2cccc(Cl)c2)CC1)Nc1ccc(C(=O)O)cc1,16
2,CC(C)C1N(c2ccccc2)C(N)=C(C#N)C1(C#N)C#N (centres unmarked),-6.43
3,O=C(NCc1ccccc1)NC1(C(=O)N2CCCC2)CCCCC1,-1.81
4,NC(=O)c1cc2ccccc2oc1=NCc1ccccc1,3.33
5,O=C(Cc1cccs1)N1CCN(c2ccccn2)CC1,5.77
6,O=[N+]([O-])c1cccc(N(CC2CO2)S(=O)(=O)c2ccccc2)c1 (centres unmarked),-5.4
7,CCn1nc(C(=O)Nc2ccccc2C)c(Cl)c1Cl,12.4
8,COc1ccc(C(=O)Nc2cc(C)on2)cc1[N+](=O)[O-],14.4
9,O=C(NCc1cccs1)c1cccc(N2CCCC2=O)c1,5.69
10,Cc1cccc(NC(=O)c2c(C)cc(=O)oc2C)n1,7.37
11,Nc1c(C(=O)c2ccccc2)sc2snc(SCC(=O)c3ccccc3)c12,23.4
12,O=C(CSc1oc(-c2ccco2)nc1S(=O)(=O)c1ccc(Cl)cc1)NCC1CCCO1 (centres unmarked),-41.3
13,NS(=O)(=O)c1ccc(-c2ccc(/C=C3\SC(=S)N(C4CCS(=O)(=O)C4)C3=O)o2)cc1 (centres unmarked),10.8
14,COc1ccc(C)cc1NC(=O)CN1CCN(S(=O)(=O)c2ccc3ccccc3c2)CC1,-0.107
15,CC(O)C[NH+]=c1cc(-c2ccccc2)oc2ccc(Cl)cc12.F[B-](F)(F)F (centres unmarked),-69.4
16,O=C(NC1CCCCC1)C1(c2ccccc2)CC1(Cl)Cl (centres unmarked),1.16
17,CC(=O)Nc1ccc(C2(O)COc3ccccc3O2)cc1 (centres unmarked),8.8
18,COc1ccc(C2=NNC(=O)CC2)cc1,19.7
19,CSCC[C@H](NC(=O)[C@H](Cc1ccccc1)n1c(=O)[nH]c2ccccc2c1=O)C(=O)N1CCC[C@@H]1C(=O)O,23.6

row,SMILES,"hERG current change (%, negative = inhibition) at 10uM [%]"
1,Cn1c(=O)c2c(nc(CN3CCOCC3)n2CC(=O)c2ccccc2)n(C)c1=O,7.1
2,O=C(NCCOc1ccc(Cl)cc1)c1ccco1,-9.75
3,COc1cccc(NC(=O)CSc2nnc(C)s2)c1,4.43
4,Cc1ccc(NC(=O)C(C)Sc2nnc(C3CC3)n2C2CC2)cc1S(=O)(=O)N1CCOCC1 (centres unmarked),-51
5,COc1ncnc2c1oc1ccccc12,9.91
6,CCOC(=O)c1ccc(N2C(=O)c3n[nH]c(C)c3C2c2ccccc2)cc1 (centres unmarked),-1.55
7,CCN(c1ccccc1)S(=O)(=O)c1cccc(C(=O)OCc2nc3sc(C)c(C)c3c(=O)[nH]2)c1,2.67
8,c1ccc(Nc2nn[nH]n2)cc1,9.37
9,O=C(COc1ccc(Cl)cc1)NCc1nnc(SCC(=O)NCc2ccc3c(c2)OCO3)o1,-5.72
10,Cc1cc(Cn2nc(C(=O)NCC3CC3)cc2-c2ccccc2)on1,-35.3
11,CCc1nnc(NC(=O)C2CCC(CNc3c(N4CCCCC4)c(=O)c3=O)CC2)s1 (centres unmarked),13.3
12,O=C(Nc1ccccc1C(=O)O)C1=NN=CC1,8.51
13,COc1ccc(N2CCN(C(=O)CCS(=O)(=O)c3ccc4c(c3)NC(=O)C(C)S4)CC2)cc1 (centres unmarked),18
14,CCN1CCN(c2c(Cl)cccc2NC(=O)c2ccc([N+](=O)[O-])o2)CC1,-73.9
15,O=C1c2cnc3nc(SCc4ccccc4)nn3c2CC2c3ccccc3CCN12 (centres unmarked),-23.7
16,CNC(=O)NC(=O)C(C)OC(=O)CCCSc1nc2ccccc2s1 (centres unmarked),-7.96
17,Nc1c(C(=O)c2ccc(Cl)cc2)sc2nsc(SCCN3CCOCC3)c12,5.78
18,CC(C)CN1C(=O)NC(NC(=O)c2ccco2)(C(F)(F)F)C1=O (centres unmarked),-17.2
19,Cc1cc(C(=O)NP(=O)(N2CC(C)OC(C)C2)N2CC(C)OC(C)C2)c(C)n1C1CC1 (centres unmarked),13.8

row,SMILES,"hERG current change (%, negative = inhibition) at 10uM [%]"
1,Cc1ccc(C(=O)NCCc2c[nH]c3ccccc23)s1,4.38
2,O=C(CCc1ccccc1)N1CCCC(Nc2ccc(F)cc2)C1 (centres unmarked),-34
3,CCOCCCNC(=O)Cn1nc(-c2ccccc2)ccc1=O,2.14
4,Cc1ccc(OCC(=O)Nc2ccc([N+](=O)[O-])cn2)cc1C,10.3
5,CCCCn1c(=O)nc2n(-c3ccccc3C)c3ccccc3cc-2c1=O,-22.5
6,CCn1cc(Br)c(C(=O)Nc2ccccc2C(=O)OC)n1,-25.2
7,COc1ccc2c(c1)OC13CCCCC1C2C(C(=O)c1ccccc1)C(=O)N3 (centres unmarked),2.72
8,O=C(c1ccc(N2CCCCCC2)c([N+](=O)[O-])c1)N1CCc2ccccc21,4.17
9,CC(C)CN(C(=O)CN1C(=O)NC(c2ccccc2)(c2ccccc2)C1=O)C1CCS(=O)(=O)C1 (centres unmarked),-34.1
10,CN(CCc1ccccn1)C(=S)NC(=O)c1ccco1,17.1
11,CC(=O)c1cccc(S(=O)(=O)N2CCC(n3nnc4cc(F)ccc43)CC2)c1,-63.7
12,O=C(CCc1nnc(CCCc2ccccc2)o1)NCCCC1CCCC1,-1.45
13,O=C(CN1CCCCCC1)NCCN1C(=O)S/C(=C\c2ccccc2Cl)C1=O,-9.34
14,O=C1c2ccccc2NC(c2ccc(-c3cccc(Cl)c3)o2)N1O (centres unmarked),-6.77
15,CCc1nnc(NC(=O)CCC(=O)NC2CCCCCCC2)s1,13.8
16,CCS(=O)(=O)c1ccc2oc(SCC(=O)NCCc3ccccc3)nc2c1,-13.8
17,O=C(O)CCC(=O)Nc1ccccc1C(=O)NCCc1ccccc1,13.2
18,C/C(=C\c1ccc(C)o1)C(=O)c1c(C)cc(C)[nH]c1=O,11.5
